In test [1] the target is T1, cynomolgus MICB*05 over-expressed on CT26.WT cells (cynomolgus). Description: cell-based or functional assay.
Test [2] addresses T2, human ULBP1 expressed on cells (human, UniProt Q9BZM6 26-216).
T2 sequence (looked up): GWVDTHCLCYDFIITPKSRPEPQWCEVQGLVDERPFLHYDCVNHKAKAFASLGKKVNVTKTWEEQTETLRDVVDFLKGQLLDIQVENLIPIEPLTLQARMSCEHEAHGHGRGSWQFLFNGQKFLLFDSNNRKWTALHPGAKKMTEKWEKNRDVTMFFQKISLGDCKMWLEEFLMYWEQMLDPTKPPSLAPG
Description: cell-based or functional assay.

Test [3] addresses T3, cynomolgus MICA*08 over-expressed on CT26.WT cells (cynomolgus). Description: cell-based or functional assay.
The target in test [4] is human MICB*001 over-expressed on CT26.WT cells (human). Description: cell-based or functional assay.
The target of test [5] is T4, human MICA*008 over-expressed on CT26.WT cells (human).
T4 sequence (Q29983 whole entry, looked up): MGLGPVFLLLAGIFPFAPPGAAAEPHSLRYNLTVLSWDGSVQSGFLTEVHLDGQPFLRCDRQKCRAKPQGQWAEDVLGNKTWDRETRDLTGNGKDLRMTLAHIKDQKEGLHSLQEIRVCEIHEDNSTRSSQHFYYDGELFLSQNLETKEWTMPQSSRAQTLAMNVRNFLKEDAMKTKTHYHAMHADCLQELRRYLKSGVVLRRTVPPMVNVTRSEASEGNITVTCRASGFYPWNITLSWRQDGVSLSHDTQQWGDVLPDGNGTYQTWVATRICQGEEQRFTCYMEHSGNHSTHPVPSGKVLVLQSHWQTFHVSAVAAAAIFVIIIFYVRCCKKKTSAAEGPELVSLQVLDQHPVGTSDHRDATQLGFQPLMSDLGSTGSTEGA
Description: cell-based or functional assay.

Test [6] concerns the target T5, human ULBP2 expressed on cells (human, UniProt Q9BZM5 26-217).
T5 sequence (looked up): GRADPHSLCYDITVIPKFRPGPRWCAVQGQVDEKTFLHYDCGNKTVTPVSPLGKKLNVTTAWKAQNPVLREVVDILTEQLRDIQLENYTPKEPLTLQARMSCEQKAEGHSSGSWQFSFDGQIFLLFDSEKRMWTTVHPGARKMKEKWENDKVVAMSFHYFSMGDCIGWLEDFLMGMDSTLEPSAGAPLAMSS
Description: cell-based or functional assay.

Test [7] deals with T6, recombinant human MICA*001 ligand (human, UniProt Q29983 24-307, Biotinylated for capture on the SA chip in the bivalent setup, according to our card. The site is not given.).
T6 construct: also called hMICA*001
T6 sequence: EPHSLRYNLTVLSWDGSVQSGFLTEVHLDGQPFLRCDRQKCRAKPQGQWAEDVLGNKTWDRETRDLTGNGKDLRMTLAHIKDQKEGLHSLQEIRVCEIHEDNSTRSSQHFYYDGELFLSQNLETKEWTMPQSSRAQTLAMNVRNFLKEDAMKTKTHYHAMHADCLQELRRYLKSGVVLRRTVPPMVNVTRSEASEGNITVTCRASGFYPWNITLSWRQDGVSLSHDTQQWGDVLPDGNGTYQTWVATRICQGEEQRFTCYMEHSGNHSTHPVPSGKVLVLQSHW
Description: SPR (Biacore T200), monovalent setup: NKG2D-Fc captured on Protein A chip, ligand as analyte. Here is the method:
(§1) A direct binding assay was performed to characterize the binding of the ADCC enhanced and wild-type NKG2D-Fc variants against recombinant human MICA*001 and MICB*001 ligands. The NKG2D-Fc variants were first used as ligand to characterize the binding of each NKG2D dimer to MICA and MICB (monovalent binding setup) and secondly as analyte in order to determine the effect on the binding when having two homodimers (bivalent binding setup).
(§2) For the monovalent binding setup, kinetic binding affinity constants (KD) were measured on protein-A captured NKG2D-Fc variants using recombinant human NKG2D ligands as analyte. Measurements were conducted on a BIAcore® T200 (GE Healthcare, Glattbrugg, Switzerland) at room temperature. The NKG2D-Fc variants were captured on the flow cell of a Protein A research grade sensor chip (GE Healthcare, ref 29127555). All proteins were diluted in 0.01 M HEPES pH 7.4, 0.15 M NaCl, 3 mM EDTA, 0.005% v/v Surfactant P20. To serve as reference, one flow cell was left blank without any captured protein. Binding data were acquired by subsequent injection of analyte dilutions series on the reference and measuring flow cell. Zero concentration samples (running buffer only) were included to allow double referencing during data evaluation. For data evaluation, doubled referenced sensograms were used and dissociation constants (KD) analyzed.

The target of test [8] is T7, recombinant human MICB*001 ligand (human, UniProt Q29980 23-309, Biotinylated for capture on the SA chip in the bivalent setup, according to our card. The site is not given.).
T7 construct: also called hMICB*001
T7 sequence: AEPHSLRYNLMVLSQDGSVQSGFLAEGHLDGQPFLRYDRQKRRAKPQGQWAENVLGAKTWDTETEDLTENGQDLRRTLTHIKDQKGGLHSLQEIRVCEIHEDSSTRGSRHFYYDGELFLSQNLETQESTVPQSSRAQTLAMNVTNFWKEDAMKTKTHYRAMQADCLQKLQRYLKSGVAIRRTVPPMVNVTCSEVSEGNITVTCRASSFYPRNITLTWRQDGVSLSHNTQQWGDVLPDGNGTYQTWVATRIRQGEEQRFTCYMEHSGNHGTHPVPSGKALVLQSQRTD
The test is described as above. The method, then:
as §1, §2

Test [9] concerns the target T6, recombinant human MICA*001 ligand. Description: SPR (Biacore T200), bivalent setup: biotinylated ligand captured on SA chip, NKG2D-Fc as analyte. Here is the method: as §1
(§3) For the bivalent binding setup, kinetic binding affinity constants (KD) were measured on streptavidin captured recombinant human NKG2D ligands using NKG2D-Fc variants as analyte. Measurements were conducted on a BIAcore® T200 (GE Healthcare, Glattbrugg, Switzerland) at room temperature. All proteins were diluted in 0.01 M HEPES pH 7.4, 0.15 M NaCl, 3 mM EDTA, 0.005% v/v Surfactant P20. The biotinylated NKG2D ligands were covalently captured on the flow cells of a SA research grade sensor chip (GE Healthcare, ref 29104992) using standard procedure according to the manufacturer's recommendation (GE Healthcare). To serve as reference, one flow cell was blank immobilized. Binding data were acquired by subsequent injection of analyte dilutions series on the reference and measuring flow cell. Zero concentration samples (running buffer only) were included to allow double referencing during data evaluation. For data evaluation, doubled referenced sensograms were used and dissociation constants (KD) analyzed.
For orientation: Surface plasmon resonance follows binding to a sensor surface in real time, without labels.

Test [10] has as its target T7, recombinant human MICB*001 ligand. The description is as above. The method, then:
as §1, §3

Test [11] has as its target T1, cynomolgus MICB*05 over-expressed on …. Description: cell-based or functional assay. The source holds these as a separate data set.
The target of test [12] is T2, human ULBP1 expressed on cells. Description: cell-based or functional assay. The source holds these as a separate data set.
For test [13], the target named is T3, cynomolgus MICA*08 over-expressed on …. Description: cell-based or functional assay. The source holds these as a separate data set.
For test [14], the target named is human MICB*001 over-expressed on CT26.WT cells (human). Description: cell-based or functional assay. This is another data set of the same source.
Test [15] concerns the target T4, human MICA*008 over-expressed on …. Description: cell-based or functional assay. This is another data set of the same source.
Test [16] concerns the target T5, human ULBP2 expressed on cells. Description: cell-based or functional assay. The source holds these as a separate data set.

B1: HH5, hNKG2D(aa78-216)-RS(G3S)2-hNKG2D(aa78-216)-hFc1[S239D, I332E] (Fc fusion)
chain: FLNSLFNQEVQIPLTESYCGPCPKNWICYKNNCYQFFDESKNWYESQASCMSQNASLLKVYSKEDQDLLKLVKSYHWMGLVHIPTNGSWQWEDGSILSPNLLTIIEMQKGDCALYASSFKGYIENCSTPNTYICMQRTVRSGGGSGGGSFLNSLFNQEVQIPLTESYCGPCPKNWICYKNNCYQFFDESKNWYESQASCMSQNASLLKVYSKEDQDLLKLVKSYHWMGLVHIPTNGSWQWEDGSILSPNLLTIIEMQKGDCALYASSFKGYIENCSTPNTYICMQRTV[human IgG1 Fc with changes left out here]
B1: the “EC50 (ng/mL), hRGA killing (Human CD16 RGA)” value (“EC50 (ng/mL), hRGA killing” below) came to 89 ng/mL in test [1]; 1.2 ng/mL in test [2]; 0.2 ng/mL in test [3]; 16 ng/mL in [4]; 1 ng/mL in [5]; 0.9 ng/mL in test [6].

B2: HH8-AFUCO (Fc fusion)
chain: NQEVQIPLTESYCGPCPKNWICYKNNCYQFFDESKNWYESQASCMSQNASLLKVYSKEDQDLLKLVKSYHWMGLVHIPTNGSWQWEDGSILSPNLLTIIEMQKGDCALYASSFKGYIENCSTPNTYICMQRTVRSGGGSGGGSNQEVQIPLTESYCGPCPKNWICYKNNCYQFFDESKNWYESQASCMSQNASLLKVYSKEDQDLLKLVKSYHWMGLVHIPTNGSWQWEDGSILSPNLLTIIEMQKGDCALYASSFKGYIENCSTPNTYICMQRTV[human IgG1 Fc left out here]
modifications: afucosylated: IgG1-Fc wt with low content of fucose
notes: it differs only in the glycan (low fucose); also called HH8_afuc with IgG1-Fc wt with low content of fucose
A word on the koff: it is the first-order rate constant of dissociation. What is called kon is a measure of how fast the partners come together. Consider B2, for which the Kd in test [7] amounted to 70 nM; in [8], 104 nM; in test [9], 1.41 nM; in test [10] it was 1.05 nM. Moreover, the koff came out at 0.00107 s⁻¹ in test [9] and 0.00411 s⁻¹ in test [10]. The kon was 755000 M⁻¹ s⁻¹ in test [9] and 3.93e+06 M⁻¹ s⁻¹ in [10].

B3: HH10, hNKG2D(aa84-216)-RS(G3S)2-hNKG2D(aa84-216)-hFc1[S239D, I332E] (Fc fusion)
chain: NQEVQIPLTESYCGPCPKNWICYKNNCYQFFDESKNWYESQASCMSQNASLLKVYSKEDQDLLKLVKSYHWMGLVHIPTNGSWQWEDGSILSPNLLTIIEMQKGDCALYASSFKGYIENCSTPNTYICMQRTVRSGGGSGGGSNQEVQIPLTESYCGPCPKNWICYKNNCYQFFDESKNWYESQASCMSQNASLLKVYSKEDQDLLKLVKSYHWMGLVHIPTNGSWQWEDGSILSPNLLTIIEMQKGDCALYASSFKGYIENCSTPNTYICMQRTV[human IgG1 Fc with changes left out here]
notes: ADCC-enhanced Fc variant (SDIE); homodimer
Regarding B3, the “ADCC EC50 (pM), FcγRIIIa reporter gene assay” value in [11] was determined as 1250 pM; in test [12], 2.71 pM; in test [13], 2.3 pM; in [14] it was 8.21 pM; in test [15], 1.33 pM; in [16], 10.5 pM. For the same molecule, the Kd was determined as 77.5 nM in test [7], 86 nM in test [8], 0.82 nM in test [9] and 0.53 nM in test [10]. In addition, the “EC50 (ng/mL), hRGA killing” value in [1] stood at 145 ng/mL; in test [2] it was 0.3 ng/mL; in test [3], 0.3 ng/mL; in test [4] it was 9.5 ng/mL; in test [5], 0.2 ng/mL; in [6], 1.2 ng/mL. Further, the koff came out at 0.000907 s⁻¹ in test [9] and 0.00328 s⁻¹ in test [10]. Also, the association rate constant (kon) in test [9] was 1.11e+06 M⁻¹ s⁻¹; in test [10], 6.22e+06 M⁻¹ s⁻¹.

B4: HH2, hNKG2D(aa78-216)-RS(G3S)2-hNKG2D(aa78-216)-hFc1 (Fc fusion)
chain: FLNSLFNQEVQIPLTESYCGPCPKNWICYKNNCYQFFDESKNWYESQASCMSQNASLLKVYSKEDQDLLKLVKSYHWMGLVHIPTNGSWQWEDGSILSPNLLTIIEMQKGDCALYASSFKGYIENCSTPNTYICMQRTVRSGGGSGGGSFLNSLFNQEVQIPLTESYCGPCPKNWICYKNNCYQFFDESKNWYESQASCMSQNASLLKVYSKEDQDLLKLVKSYHWMGLVHIPTNGSWQWEDGSILSPNLLTIIEMQKGDCALYASSFKGYIENCSTPNTYICMQRTV[human IgG1 Fc left out here]
notes: Homodimer
Regarding B4, the “EC50 (ng/mL), hRGA killing” value in test [1] was found to be 1350 ng/mL; in test [2], 8.3 ng/mL; in [3], 7.3 ng/mL; in test [4], 91 ng/mL; in test [5] it was 4.7 ng/mL; in test [6], 15 ng/mL.

Source of the values: US20220348632A1 (Novartis, published 2022).
